Measured values reported in the supplement of paper PMC11417369.
± gives the standard deviation of the averaged measurements. The list shows a part of the results.

Each sequence was assayed on PfAP2-LT AP2 domain (GST-tagged) (assay: gcPBM binding intensity (ln(normalized median fluorescence intensity)); higher = stronger DNA binding).
How it was run: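 DNA-binding domains from P. falciparum, fused to GST and produced in E. coli, were put on an Agilent 4 × 180k double-stranded probe array for 1 h in 1× PBS holding 1% milk, 0.2 mg/ml BSA, 0.5% salmon testes DNA and 0.03% Triton X-100. Probes were primer-extended, 36 bp long and drawn from intergenic genomic regions, with negative controls included. After Alexa488 anti-GST antibody detection and a 488 nm scan, binding intensity was set as the highest Masliner-normalised natural-log median intensity across replicate spots of either probe orientation.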

Sequence	gcPBM binding intensity (ln)
TATTTCATTAATGTCACTTTGAAAGAAATGAAAAAA [CACACA_negctrl_site1803]	8.34 ± 0.45
TGCGTATATATATACACACACATATATATATTTTAA [CACACA_site1952]	9.1 ± 0.3
TGTTTTTAAAAAAAAAAAAAATCACACCGGCAGGTA [CACACA_negctrl_site1437]	8.4 ± 0.45
TATTGACATATATTAGTGCAATAATGAAATCAAGTA	8.78 ± 0.45
CATATTATTCTTTTCACACACGCGTTAATAATAATC [CACACA_site3931]	9.28 ± 0.3
GAACATTTGAAATATGCACACATGTATAAACATACA [CACACA_site5463]	9.04 ± 0.33
ATACATCGTATATAAGTGCATATTAAGGTCTTAAGA [GTGCAC_site9560]	8.99 ± 0.34
TATATATGTATCAAGTGTACAGTTTTAAAAAAAAAA [XGTACX_site6011]	8.64 ± 0.45
ACACACAATACAAAAGTGCATATAATAATTAATCAT	9.34 ± 0.46
TTGTAATTATTAAACACACACAAAATATATATAATA [CACACA_site2523]	9.13 ± 0.33
CCATAAAAATATAATACACACATATATATTAACATA [CACACA_site4102]	9.04 ± 0.42
AGGTGAGCTCAGACTACACACACAAAGAAAAAAATA [CACACA_site8439]	9.36 ± 0.47
AAAAAAAAAAAAAACACACACATACAGACAAAAATG [CACACA_site83]	9.7 ± 0.45
CTAAATTATAGATCAGTGCAATTTAATATGAGTCCA	8.55 ± 0.45
TTATCGACCAATAAAGCATGCAAAAAAAAAAAAAAA [TGCATGCA_site788]	8.73 ± 0.4
CTACATAAAAAAATATGTACATATATATATATATAT [XGTACX_site667]	9.58 ± 0.13
CCCACAGACAAAAACACACACAAAGGTGTTCTTATA [CACACA_site4840]	9.3 ± 0.45
AAGAGAAAAAGAATGAAAGAAAAAAAAAAAAAATAT [CACACA_negctrl_site1527]	8.65 ± 0.54
TTTTTAAAGGTGATAAAACACACGATTTAGAAATGT [CACACA_site3160]	8.72 ± 0.54
GTGTTGAATTATGTGCTTTTTTCTTTCTACTCAGTA [XGTACX_negctrl_site464]	8.98 ± 0.45
TTTAATATAACTATTTGTACATAAAGAATATAAATA [XGTACX_site4594]	8.34 ± 0.48
TTTTTTTGCCATATTACACACACACGGGTAAACCCC [CACACA_site6874]	9.52 ± 0.38
TAAATTTTTATTTGTAGTACTATATATATATATATA [XGTACX_site1026]	8.9 ± 0.12

Sequence	gcPBM binding intensity (ln)
TAATGAAAATATATAACACACAAAAGTTATAAATAT [CACACA_site1189]	8.94 ± 0.4
AAAAAATTGACTAATGCACACAATTACAGATATATA [CACACA_site5010]	9.03 ± 0.38
AAAGATAAAAAAAGTACACACACACCGATATATATA [CACACA_site9006]	10 ± 0.14
ACTTTAACCTGAACGGTGCATAAAATTTTGGCATTA	8.71 ± 0.38
AATATATATAAAAAGGGAAAAATATATAAATAGATA [XGTACX_negctrl_site52]	8.68 ± 0.5
TTTCATTAATCTAATAGTACAGAAAATTGAGAAAAA [XGTACX_site8395]	8.27 ± 0.41
TCTATTAATTAATATACACACATTATGTATATATAT [CACACA_site2541]	9 ± 0.37
GTATACAAACATATAAATATAAATGTATTATTTGTT [CACACA_negctrl_site756]	8.78 ± 0.37
TCGTGCATAAATCATACACACACACCGATATATATA [CACACA_site8767]	9.59 ± 0.22
AAAAAAAAAAAAAACGCACACATTTTTACAATTCTA [CACACA_site3271]	9.04 ± 0.42
TTTGTATCCTTTTTGACATGCAACCATTCGGGTACA [TGCATGCA_site506]	8.59 ± 0.45
TCACAATTTTTTAGTACACACATATAAATATATAAA [CACACA_site1537]	8.64 ± 0.47
AAAAAATTAATAAAAACACACAAAAAAAATAAACAA [CACACA_site1907]	8.95 ± 0.57
TTTGTTGTTTGGAGATGTACATATTTTACACTTTTT [XGTACX_site5965]	9.02 ± 0.48
ATTTCACAGAGACACACACACAATATATTTCCTTTT [CACACA_site7773]	9.6 ± 0.34
ATAAATATTTACAAAAGTACACATAACTTTAGATAT [XGTACX_site1685]	8.78 ± 0.5
TAAACATAATATTTAACACACATGAAGATGTATATT [CACACA_site1036]	8.76 ± 0.39
GTTTTGGCTAACTATTCACACATTAAAATATTACCA [CACACA_site5016]	8.76 ± 0.44
CACCATGATACATACACACAGACATATACGCATTCA [CACACA_site1008]	9.46 ± 0.18
ACAATCCACAGGGGCGCACACATATAAGCAGTATAT [CACACA_site3817]	9.46 ± 0.46
TTTATATTAAAATATTGTACGGACATTATTTTGTAA [XGTACX_site8128]	8.44 ± 0.38
CATAATATGACATACACACACAAAAAAAAAAAAATA [CACACA_site1285]	9.47 ± 0.49
AACCGGGCCTAAGATGTAATGCCTTAGCCTATAAAA [CACACA_negctrl_site479]	8.54 ± 0.56

Sequence	gcPBM binding intensity (ln)
ATAAAATATATGAAGACACACATAACATCATATTTT [CACACA_site3144]	9.11 ± 0.33
ACTATTATTAAAAATTGTACTTTCTATAAATTTTTT [XGTACX_site7825]	8.57 ± 0.54
TACATATTTTGTATATATTATTTATTTTATTAGTTT [XGTACX_negctrl_site85]	8.6 ± 0.34
TTCTGACTTGTTATAATTTGTATATCCGAAAAAATT [TGCATGCA_negctrl_site456]	8.47 ± 0.37
ATAACATCAGTATTATGTACATATGTAGGTAAATAA [XGTACX_site7066]	9.27 ± 0.44
TTTTATTGTTTTTTTTTTTTTTCTTTTTTTTTTTTT [CACACA_negctrl_site1094]	8.47 ± 0.61
CGTTATTATACACATACACACAGGAATAAAAAATTA [CACACA_site7373]	9.06 ± 0.42
AGAAACATATGGTAGTGTACTGTAAATTTATTCTTT [XGTACX_site8602]	8.87 ± 0.49
ATTTTGTGTAGTGATGCATGTTATATATATATTTGA [TGCATGCA_site422]	9.01 ± 0.35
TTTTATCAAATATTTATTTTATACATAAATATTTAT [XGTACX_negctrl_site528]	8.66 ± 0.5
CTTTTTATTTAGGAGGTGCATGTAATACGGAACATA	8.49 ± 0.3
TTTTGTTTAATATTCACACATATATATTTTTTATTT [CACACA_site5496]	8.8 ± 0.49
CATACTGTTATAAAATGTACGCATATACACACACAT [XGTACX_site7256]	9.5 ± 0.27
GATCTATACATGGGGACACACATCACTCTATATTTT [CACACA_site3408]	9.17 ± 0.42
ATTTGTTATATATTCTTTTATGTTAATAATTCGAAT [CACACA_negctrl_site378]	8.7 ± 0.45
TATGAATAAAAAAGAAGTACAAATTATATGAACGCA [XGTACX_site3018]	8.96 ± 0.52
AAAAAATACAAACACACACACACACCCATATATATA [CACACA_site3560]	10.21 ± 0.057
ATTATATTAAAATACACACCCAAATATTAAAAAGAT [CACACA_site5613]	9.16 ± 0.24
TGATAAAATGGGGAAATTCATTATATCATATCTTGG [CACACA_negctrl_site789]	8.71 ± 0.35
TTGGATAAAAAATATGTACACACATATAGATATCTA [CACACA_site8862]	8.86 ± 0.44
TTTGAAATATTAAATGCATGTTAAAACATAAAAATG [TGCATGCA_site680]	8.55 ± 0.33
TTTCTTCTTCTATTGTGTACGTAAAAAAAAAAAAAA [XGTACX_site772]	8.07 ± 0.4
GGTAATTTCCTTTTTTGTACTCATAGAAGGATAATA [XGTACX_site89]	8.53 ± 0.37

Sequence	gcPBM binding intensity (ln)
TAGTATCCAAGAAAAAGTACTTATTTTAATTTTTTA [XGTACX_site6243]	8.3 ± 0.57
TCAGATATATATATATAAATATATATTTTGAAATGT [CACACA_negctrl_site686]	8.8 ± 0.46
AATATTTATAAAGACACACAAACAAAAAGGATAAAA [CACACA_site2985]	9.02 ± 0.49
TCATTTAAGTAGACGCGTACGGAAATTACGAATCCT [XGTACX_site144]	8.88 ± 0.45
ATTATTATATTTATATGTACATAGAAAAAATTAAAT [XGTACX_site2058]	8.58 ± 0.49
AAAGTGGCCATATATTTTTTTTTTTTTTTCCTTATT [CACACA_negctrl_site485]	8.52 ± 0.48
AAAAATAAAGGATATACACACTAATTATATATATAT [CACACA_site5550]	9.04 ± 0.39
AAGACTGCACTTTAAGCACACAAATATATTTTTTTT [CACACA_site8337]	8.86 ± 0.38
AAGAAAAAAATTTAATTAAATGAAATTTTTGAATTA [TGCATGCA_negctrl_site25]	8.15 ± 0.52
AAATTAATATATAAAAGTACCCATATATTTAATATA [XGTACX_site3551]	8.52 ± 0.43
TTTTTTTTTTGTTGAGTGCAATTATTTGTAAGAAAA	8.13 ± 0.34
TATAACAAAATATTCACACATATAAGTAAATAAAGG [CACACA_site5777]	8.92 ± 0.54
TCTCCACCTCTCTTGGTGCGTTATACCCTCGAGGCT	9.05 ± 0.61
AGTTTGTTTTTTTTTTTTTTTTCCTGTCACAAACAA [CACACA_negctrl_site1093]	8.78 ± 0.47
GTACGTTACATAAATGTGCACATATTATATGCGAAG	9.09 ± 0.35
GTCATATATATATGTACACACATATATATATTTATA [CACACA_site1459]	8.96 ± 0.35
TCAAAGCACCCATACACACACATATATATATATATA [CACACA_site4317]	10.2 ± 0.18
TGAGTTACATACTAATGTACACAACAAAAAAAAAAA [XGTACX_site2390]	8.73 ± 0.49
TTTTTTTGAACATATACACACTCTAAACTTATACAT [CACACA_site3917]	8.79 ± 0.56
AAAGGTTTATATGATACACACATAAGTGATCAGGTT [CACACA_site190]	9 ± 0.4
AAAAACTAATCTTTAACATGCAACCGTTTATACATA [TGCATGCA_site363]	8.55 ± 0.43
